{"source": "the supplement of paper PMC11417369", "note": "± gives the standard deviation of the averaged measurements. This is one part of the list."}
{"test_system": "PfAP2-I AP2 domain 3 (GST-tagged)", "test": "gcPBM binding intensity (ln(normalized median fluorescence intensity)); higher = stronger DNA binding", "how_it_was_run": "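An Agilent 4 × 180k array of primer-extended double-stranded 36-bp intergenic genomic probes, with negative controls, was incubated for 1 h with GST-tagged P. falciparum DNA-binding domains expressed in E. coli. Alexa488 anti-GST antibody detected bound protein, scanned at 488 nm. Binding intensity is the highest Masliner-normalised natural-log median intensity across replicate spots of either probe orientation.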"}
{"sequence": "AATATAAACAAACACACACACATATATATATATATT [CACACA_site5592]", "gcPBM binding intensity (ln)": "7.79 ± 0.46"}
{"sequence": "ATAAAAAAAGGACACACACACATATATTTATTTATA [CACACA_site7438]", "gcPBM binding intensity (ln)": "7.89 ± 0.31"}
{"sequence": "AAAAAAAAAAAAAATAGTACAATACCCAAATATAAC [XGTACX_site6684]", "gcPBM binding intensity (ln)": "8.26 ± 0.38"}
{"sequence": "ATGTCATATAATAGTACACACATGAAAATATAAATA [CACACA_site3215]", "gcPBM binding intensity (ln)": "8.07 ± 0.3"}
{"sequence": "GGTAGGGATTATACCACACACACATACACATAAATA [CACACA_site3179]", "gcPBM binding intensity (ln)": "8 ± 0.35"}
{"sequence": "ACTATTAAAATGAATACACACAAATATAAAAATATA [CACACA_site4145]", "gcPBM binding intensity (ln)": "7.71 ± 0.25"}
{"sequence": "ACGCTACATAAATACGTGCACATCTTTTTGTGTATA [GTGCAC_site9675]", "gcPBM binding intensity (ln)": "10.8 ± 0.15"}
{"sequence": "CATCTTATATAATCATGTACATATAGAGACTTCTTT [XGTACX_site7685]", "gcPBM binding intensity (ln)": "7.74 ± 0.47"}
{"sequence": "GGGGGAATTTACATGGGTACACATGTATTAAAAAAT [XGTACX_site4130]", "gcPBM binding intensity (ln)": "8.995 ± 0.049"}
{"sequence": "TTTTTCTTACATGAGTGTACACACTTTTTTTCAGAA [XGTACX_site138]", "gcPBM binding intensity (ln)": "8.475 ± 0.035"}
{"sequence": "TTATATGTATGGAGGTTTTTGTATATAGATATATAG [CACACA_negctrl_site177]", "gcPBM binding intensity (ln)": "7.65 ± 0.54"}
{"sequence": "AAAAAAAAATTATTCACACATATATATATATATATA [CACACA_site5579]", "gcPBM binding intensity (ln)": "9.43 ± 0.29"}
{"sequence": "GAACCATAAGGAACGACACACAAAGATAAATAAATA [CACACA_site3472]", "gcPBM binding intensity (ln)": "7.61 ± 0.48"}
{"sequence": "AAAAATAAAAAAAGCACACACATATATATATATATA [CACACA_site1885]", "gcPBM binding intensity (ln)": "9.76 ± 0.33"}
{"sequence": "ATAATATTTTAATGCACACACACAAAAAAAAAAAAA [CACACA_site2891]", "gcPBM binding intensity (ln)": "11.2 ± 0.61"}
{"sequence": "AAATTTGCTTTTATTTTACACACTTGCTCCTGTTGT [CACACA_site8276]", "gcPBM binding intensity (ln)": "8.07 ± 0.92"}
{"sequence": "AAACAATCTAAAAGTAGTACAATAAAAATATATATA [XGTACX_site5607]", "gcPBM binding intensity (ln)": "8.08 ± 0.57"}
{"sequence": "CGATACTTTAGGTGTACACAAATATACATGAATGAG [CACACA_site5189]", "gcPBM binding intensity (ln)": "8.51 ± 0.43"}
{"sequence": "AAAAAAAAGGAAATAACACACATGTATTTATTTATA [CACACA_site4966]", "gcPBM binding intensity (ln)": "7.38 ± 0.55"}
{"sequence": "TATAATCATATTAAGGGTACATATGTGTAAATATTT [XGTACX_site6018]", "gcPBM binding intensity (ln)": "8.21 ± 0.63"}
{"sequence": "TTATTATAAATGTTTTGTACGTACATCCGAAAATAA [XGTACX_site2175]", "gcPBM binding intensity (ln)": "8.18 ± 0.27"}
{"sequence": "CTTTAAAACCGGTACTGTACACATAGTATTATTATC [XGTACX_site2602]", "gcPBM binding intensity (ln)": "8.03 ± 0.49"}
{"sequence": "ATAATAATAATATAACCAAGGAAATATAATATTTGT [XGTACX_negctrl_site485]", "gcPBM binding intensity (ln)": "7.32 ± 0.42"}
{"sequence": "ATATTTATACATAAATGTACTTTTATATATTTAATA [XGTACX_site3020]", "gcPBM binding intensity (ln)": "7.64 ± 0.38"}
{"sequence": "AATATTATAAATGATACACACTTAAAATACACGCAC [CACACA_site7305]", "gcPBM binding intensity (ln)": "8.71 ± 0.22"}
{"sequence": "TATTACATAATACAAAGTACATATATTTTTTTATTT [XGTACX_site7061]", "gcPBM binding intensity (ln)": "7.53 ± 0.33"}
{"sequence": "GTATATATATATATATGTACTAATTAGTAGTTTACG [XGTACX_site6274]", "gcPBM binding intensity (ln)": "8.13 ± 0.24"}
{"sequence": "AGCACATATATATTATGTACATATAACTTCCCAGTG [XGTACX_site7095]", "gcPBM binding intensity (ln)": "7.78 ± 0.54"}
{"sequence": "AATATTTTATTTTGGGTGCAAAAGAATATTATTTCA", "gcPBM binding intensity (ln)": "10.5 ± 0.65"}
{"sequence": "AATATAAATATTAAAACACACATAAAAAGATTATTA [CACACA_site1764]", "gcPBM binding intensity (ln)": "7.6 ± 0.26"}
{"sequence": "TGATATTTACAAATATTAAGATCTTATATTTTTTTT [CACACA_negctrl_site617]", "gcPBM binding intensity (ln)": "7.3 ± 0.64"}
{"sequence": "GTGTGAAACATAAACACACACAAAAAGAAAAAATAG [CACACA_site1227]", "gcPBM binding intensity (ln)": "7.83 ± 0.67"}
{"sequence": "TATATATATATATTACGTACATAGAACTTTATAAAA [XGTACX_site4485]", "gcPBM binding intensity (ln)": "9.22 ± 0.23"}
{"sequence": "ATAGAACTATATTGCACACATAATATATATATATAT [CACACA_site3189]", "gcPBM binding intensity (ln)": "10.5 ± 0.52"}
{"sequence": "GTAAAAAATATGACAAGTACAAGAAAAGAAAAAAGT [XGTACX_site7906]", "gcPBM binding intensity (ln)": "8.38 ± 0.73"}
{"sequence": "AAAAGATTTATACATACACACATATTATATTCACAT [CACACA_site3713]", "gcPBM binding intensity (ln)": "7.77 ± 0.71"}
{"sequence": "TTATAAATATAAAAATGTACAGAAAAAAAAAATAAA [XGTACX_site863]", "gcPBM binding intensity (ln)": "7.84 ± 0.47"}
{"sequence": "TTATTTTATAATAAAAGTACACAAAAAAAAAAAAAA [XGTACX_site7668]", "gcPBM binding intensity (ln)": "8.05 ± 0.37"}
{"sequence": "TTATTTCTCTTTTCAGTGCATTTTATAACAAAAAAA [GTGCAC_site9930]", "gcPBM binding intensity (ln)": "9.855 ± 0.078"}
{"sequence": "ATATATATAATATGCGGTACACATTAATTAAATCAT [XGTACX_site5702]", "gcPBM binding intensity (ln)": "8.37 ± 0.43"}
{"sequence": "TTATAATATATATACAGTACATATATAAAATAATAT [XGTACX_site5917]", "gcPBM binding intensity (ln)": "7.79 ± 0.33"}
{"sequence": "TAATATAAAGAAAAGGAACACACAAATATATATATA [CACACA_site8049]", "gcPBM binding intensity (ln)": "8.91 ± 0.099"}
{"sequence": "TTTTCTTGGTTCAGTGTGCACTTATATATATATATA", "gcPBM binding intensity (ln)": "10.3 ± 0.2"}
{"sequence": "ATGGACATCTATTGTTGTACACATTTTCCCATAACA [XGTACX_site5429]", "gcPBM binding intensity (ln)": "8.12 ± 0.42"}
{"sequence": "GTAGAGCATAATAAAACACACACATACATACATATA [CACACA_site8217]", "gcPBM binding intensity (ln)": "8.27 ± 0.24"}
{"sequence": "GAATATAAAATATATATATATATATATATATATATA [GTGCAC_negctrl_site425]", "gcPBM binding intensity (ln)": "9.18 ± 0.67"}
{"sequence": "TTTCAAAAATGAGTTACACACACACGGATATAAATA [CACACA_site7116]", "gcPBM binding intensity (ln)": "7.87 ± 0.57"}
{"sequence": "AATTTTAAGAGCTATACATGCACTTCATAAAAAGTG [TGCATGCA_site180]", "gcPBM binding intensity (ln)": "9.24 ± 0.16"}
{"sequence": "ATAATAAAAAAAAATGCACACATATATATATATATA [CACACA_site8766]", "gcPBM binding intensity (ln)": "9.59 ± 0.47"}
{"sequence": "AATATATATATATATACACACACACCGATATATATA [CACACA_site8158]", "gcPBM binding intensity (ln)": "8.1 ± 0.52"}
{"sequence": "TAACAATTAATAAAAGGTACACTTGAATATGCACCA [XGTACX_site2717]", "gcPBM binding intensity (ln)": "10.8 ± 0.59"}
{"sequence": "TTAATATTTAGACATGCATGCTAATTACTATATATA [TGCATGCA_site27]", "gcPBM binding intensity (ln)": "7.83 ± 0.24"}
{"sequence": "ATTAATAAGAAATATACACACATGGATAAATACATA [CACACA_site1872]", "gcPBM binding intensity (ln)": "7.58 ± 0.64"}
{"sequence": "TTTCTTGCTACATGAAGTACACTTTCTATGACTCGT [XGTACX_site5583]", "gcPBM binding intensity (ln)": "7.92 ± 0.48"}
{"sequence": "TATGATATAATTATGTGTACACAATTTTTTTTTTTT [XGTACX_site1084]", "gcPBM binding intensity (ln)": "8.05 ± 0.028"}
{"sequence": "ATATATATTTTATTCACACATAAGATTATAAAACAT [CACACA_site5369]", "gcPBM binding intensity (ln)": "7.96 ± 0.4"}
{"sequence": "TGTGTTCAGTATTGCACACACACAACAAAATAAAAA [CACACA_site8017]", "gcPBM binding intensity (ln)": "10 ± 0.74"}
